In paper PMC11995724, “Antibiotic target discovery by integrated phenotypic and activity-based profiling of electrophilic fragments” (Cell chemical biology, 2025):
The campaign covered roughly 3,200 compounds. About 110 (3.4%) showed an effect of 50% or more. The list shows a part of the results.

test system: T1, V. cholerae SAD30; design: species or system S. aureus MSSA476 (TSB) or V. cholerae SAD30 (LB); 384-well bacterial growth screen at 25 uM, OD600 relative to DMSO control; conditions: relative growth, OD600, LB; 25 µM; inhibitor
T1 construct: SAD30

| Compound | % of control remaining [%] |
| --- | --- |
| O=C(CCl)N1CCN(C2CCCN(C3CCOCC3)C2=O)CC1 (centres unmarked) [5-E18, 3-[4-(2-chloroacetyl)piperazin-1-yl]-1-(oxan-4-yl)piperidin-2-one] | 92.9705 |
| C=CC(=O)Nc1cccc(C(=O)C(F)F)c1 [1-G14, N-[3-(2,2-difluoroacetyl)phenyl]prop-2-enamide] | 91.1809 |
| COc1ccc(Cl)c2c1CCCC2N(C)C(=O)C(C)Cl (centres unmarked) [7-P09, 2-chloro-N-(8-chloro-5-methoxy-1,2,3,4-tetrahydronaphthalen-1-yl)-N-methylpropanamide] | 63.4396 |
| C=CC(=O)NC1CN(S(=O)(=O)c2ccc3c(c2)OCCO3)C1 [2-E11, N-[1-(2,3-dihydro-1,4-benzodioxine-6-sulfonyl)azetidin-3-yl]prop-2-enamide] | 95.7541 |
| C=CC(=O)NC1(c2ncon2)CC1 [1-A05, N-[1-(1,2,4-oxadiazol-3-yl)cyclopropyl]prop-2-enamide] | 89.0882 |
| C=CC(=O)N(C)Cc1noc(C2CC2)n1 [2-N17, N-[(5-cyclopropyl-1,2,4-oxadiazol-3-yl)methyl]-N-methylprop-2-enamide] | 90.9679 |
| C=CC(=O)Nc1ccc(C(C)Sc2ccccc2)cc1 (centres unmarked) [1-C21, N-{4-[1-(phenylsulfanyl)ethyl]phenyl}prop-2-enamide] | 65.4709 |
| CCn1nc(C)c(C(=O)CCl)n1 [10-P08, 2-chloro-1-(2-ethyl-5-methyl-2H-1,2,3-triazol-4-yl)ethan-1-one] | 40.2104 |
| COC(=O)C1(NC(=O)CCl)CC1 [6-I06, methyl 1-(2-chloroacetamido)cyclopropane-1-carboxylate] | 92.9756 |
| C=CC(=O)N(C)CC(=O)N1CCC2(CC1)CC2c1nnc(C(C)C)o1 (centres unmarked) [2-N22, N-methyl-N-(2-oxo-2-{1-[5-(propan-2-yl)-1,3,4-oxadiazol-2-yl]-6-azaspiro[2.5]octan-6-yl}ethyl)prop-2-enamide] | 92.6662 |
| O=C(CCl)N1CC2CCC(C1)O2 [6-M20, 2-chloro-1-{8-oxa-3-azabicyclo[3.2.1]octan-3-yl}ethan-1-one] | 95.8574 |
| C=CC(=O)NC(C)c1ccc(-n2ccnn2)cc1 (centres unmarked) [3-B13, N-{1-[4-(1H-1,2,3-triazol-1-yl)phenyl]ethyl}prop-2-enamide] | 104.793 |
| N#CC(=Cc1csc(C2CC2)n1)C(=O)Nc1ccccc1C(=O)O [9-C16, 2-[2-cyano-3-(2-cyclopropyl-1,3-thiazol-4-yl)prop-2-enamido]benzoic acid] | 81.6451 |
| Cc1ccc(C=C(C#N)C(=O)NC2CCCC2)cc1C [8-E12, 2-cyano-N-cyclopentyl-3-(3,4-dimethylphenyl)prop-2-enamide] | 70.6322 |
| C=CC(=O)NCCN1C(=O)COc2ccccc21 [2-P07, N-[2-(3-oxo-3,4-dihydro-2H-1,4-benzoxazin-4-yl)ethyl]prop-2-enamide] | 101.004 |
| Cc1ccc(NC(=O)C(C#N)=Cc2ccc(OC(F)F)cc2)c(C)c1 [9-G19, 2-cyano-3-[4-(difluoromethoxy)phenyl]-N-(2,4-dimethylphenyl)prop-2-enamide] | 75.2549 |
| CN1C(=C(C#N)C(=O)CCl)N(C)c2ccccc21 [10-P18, 4-chloro-2-(1,3-dimethyl-2,3-dihydro-1H-1,3-benzodiazol-2-ylidene)-3-oxobutanenitrile] | 91.7982 |
| CC1CCN(C(=O)CCl)c2cc(C(F)(F)F)ccc2S1 (centres unmarked) [5-J07, 2-chloro-1-[2-methyl-7-(trifluoromethyl)-2,3,4,5-tetrahydro-1,5-benzothiazepin-5-yl]ethan-1-one] | 87.7587 |
| C=CC(=O)NCCC(=O)NC1CCSc2ccc(F)cc21 (centres unmarked) [3-D08, N-{2-[(6-fluoro-3,4-dihydro-2H-1-benzothiopyran-4-yl)carbamoyl]ethyl}prop-2-enamide] | 104.44 |
| C=CC(=O)NC1(Cn2cccn2)CC(F)(F)C1 [2-J17, N-{3,3-difluoro-1-[(1H-pyrazol-1-yl)methyl]cyclobutyl}prop-2-enamide] | 91.5854 |
| N#CC(=Cc1cc2ccccc2o1)C(=O)NCc1ccco1 [9-O08, 3-(1-benzofuran-2-yl)-2-cyano-N-[(furan-2-yl)methyl]prop-2-enamide] | 80.4215 |
| O=C(CCl)NC1CCCOc2c(F)cccc21 (centres unmarked) [7-B14, 2-chloro-N-(9-fluoro-2,3,4,5-tetrahydro-1-benzoxepin-5-yl)acetamide] | 79.696 |
| O=C(CCl)c1sccc1Cl [10-K11, 2-chloro-1-(3-chlorothiophen-2-yl)ethan-1-one] | 0 |
| C=CC(=O)NC1CCCN(C(=O)CCC(F)(F)F)C1 (centres unmarked) [1-B03, N-[1-(4,4,4-trifluorobutanoyl)piperidin-3-yl]prop-2-enamide] | 100.897 |
| COc1ccc(C=C(C#N)C(=O)Nc2cccc3c2C(=O)NC3=O)cc1 [8-F13, 2-cyano-N-(1,3-dioxo-2,3-dihydro-1H-isoindol-4-yl)-3-(4-methoxyphenyl)prop-2-enamide] | 77.1584 |
| CC(Cl)C(=O)NCCN1C(=O)CSC1=O (centres unmarked) [5-M03, 2-chloro-N-[2-(2,4-dioxo-1,3-thiazolidin-3-yl)ethyl]propanamide] | 110.623 |
| C=CC(=O)Nc1ccc2c(c1)N(C)CC2 [1-G13, N-(1-methyl-2,3-dihydro-1H-indol-6-yl)prop-2-enamide] | 88.6398 |
| C=CC(=O)NCC1CCCN1S(=O)(=O)CC (centres unmarked) [3-F19, N-{[1-(ethanesulfonyl)pyrrolidin-2-yl]methyl}prop-2-enamide] | 88.9138 |
| CC(Cl)C(=O)N1CCC(c2nc(N(C)C)no2)CC1 (centres unmarked) [6-F05, 2-chloro-1-{4-[3-(dimethylamino)-1,2,4-oxadiazol-5-yl]piperidin-1-yl}propan-1-one] | 90.7005 |
